# Test results taken from PMC12102759.
# B1: BCAR1 peptide 629-644 (Breast cancer anti-estrogen resistance protein 1), 16-mer library wild type / YES SH3 (YES1 SH3 domain, residues 90-152) (parent)
# chain 1: TSSIQSRPLPSPPKFT
# chain 2: TGGVTIFVALYDYEARTTEDLSFKKGERFQIINNTEGDWWEARSIATGKNGYIPSNYVAPADS
# Variants of: B1
# Test: proteomic peptide phage display deep mutational scan (ProP-PD DMS): M13 P8 16-mer library selected against immobilised GST-tagged bait for four days (rounds), NGS of the eluted pools per day and pseudo-replica
# Conditions: with YES SH3 (YES1 SH3 domain, residues 90-152); bait immobilised on MaxiSorp plates (10 µg), library pre-cleared on GST, 2 h binding at 4 °C, five washes; one round per day, days 1-4; value from days 2 and 3; keep out of graded; scale: average fractional NGS count over selection days 2 and 3
row,Variant,screen value
1,chain 1 S2P,8.12e-05
2,chain 1 S2W,0.00126
3,chain 1 S2Y,3.35e-05
4,chain 1 S2A,0.000217
5,chain 1 S2M,4.6e-05
6,chain 1 S2T,0.000912
7,chain 1 S2N,5.23e-05
8,chain 1 S2R,4.16e-05
9,chain 1 S2G,0.00103
10,chain 1 S2D,0.000125
11,chain 1 S2E,0.000199
12,chain 1 S2L,3.79e-05
13,chain 1 S2K,0
14,chain 1 P13M,0.000165
15,chain 1 P13D,0.000226
16,chain 1 P13V,6.19e-05
17,chain 1 P13L,0.00223
18,chain 1 P13I,0.00117
19,chain 1 P13A,3.78e-05
20,chain 1 P13T,6.92e-05
21,chain 1 P13F,0.000189
22,chain 1 P13S,0.000133
23,chain 1 P13E,2e-05
24,chain 1 P13W,0.000152

row,Variant,screen value
1,chain 1 P13Q,0.000472
2,chain 1 P13G,0.000405
3,chain 1 P13N,8.14e-05
4,chain 1 P13Y,0.000958
5,chain 1 F15N,5.84e-05
6,chain 1 F15L,0.000133
7,chain 1 F15D,0
8,chain 1 F15Q,4.4e-05
9,chain 1 F15P,0.00069
10,chain 1 F15G,0.000171
11,chain 1 F15E,0.000232
12,chain 1 F15M,0.00233
13,chain 1 F15T,8.17e-06
14,chain 1 F15R,7.47e-05
15,chain 1 F15A,9.69e-05
16,chain 1 F15Y,7.48e-05
17,chain 1 F15S,0
18,chain 1 F15I,0.000305
19,chain 1 F15V,0.000176
20,chain 1 F15W,0.000147
21,chain 1 F15H,8.83e-05
22,chain 1 L9K,8.17e-06
23,chain 1 L9M,0.000161
24,chain 1 L9Y,0

row,Variant,screen value
1,chain 1 L9I,0.000119
2,chain 1 L9P,0
3,chain 1 L9F,0
4,chain 1 L9Q,0
5,chain 1 L9T,0
6,chain 1 L9V,5.63e-05
7,chain 1 L9N,0
8,chain 1 L9D,0
9,chain 1 S3D,0
10,chain 1 S3L,0.00166
11,chain 1 S3I,0.00355
12,chain 1 S3A,0.000105
13,chain 1 S3M,0.000163
14,chain 1 S3F,0.000263
15,chain 1 S3N,6.68e-05
16,chain 1 S3E,0
17,chain 1 P12K,0.000118
18,chain 1 P12Y,0.00149
19,chain 1 P12W,0.000182
20,chain 1 P12N,8.85e-05
21,chain 1 P12L,0.00319
22,chain 1 P12I,4.26e-05
23,chain 1 P12V,5.53e-05
24,chain 1 P12E,0.000119

row,Variant,screen value
1,chain 1 P12S,0.000259
2,chain 1 P12H,0.000281
3,chain 1 P12M,2.97e-05
4,chain 1 P12R,2.03e-05
5,chain 1 P12T,0.00108
6,chain 1 P12Q,0.00334
7,chain 1 P12F,0.000389
8,chain 1 P12D,9.43e-06
9,chain 1 P8T,5.8e-05
10,chain 1 P8M,0.00015
11,chain 1 P8L,3.6e-05
12,chain 1 P8R,4.42e-05
13,chain 1 P8V,0.000191
14,chain 1 P8N,6.15e-05
15,chain 1 P8H,4e-05
16,chain 1 P8Y,8.55e-05
17,chain 1 P8Q,4.51e-05
18,chain 1 P8I,0.000256
19,chain 1 P8W,8.63e-05
20,chain 1 P8S,6e-05
21,chain 1 P8D,4.6e-05
22,chain 1 P8A,3.03e-05
23,chain 1 P8E,2.72e-05
24,chain 1 P8G,8.77e-05

row,Variant,screen value
1,chain 1 R7V,1.73e-05
2,chain 1 R7H,0.000407
3,chain 1 R7I,0
4,chain 1 R7K,0.000753
5,chain 1 R7Y,2.97e-05
6,chain 1 R7F,7.67e-05
7,chain 1 R7S,2.98e-05
8,chain 1 R7P,0
9,chain 1 R7G,0.000124
10,chain 1 R7M,0.000816
11,chain 1 R7A,0.000207
12,chain 1 R7T,0.000476
13,chain 1 R7W,0.000412
14,chain 1 R7D,0.000172
15,chain 1 R7Q,3.5e-05
16,chain 1 R7N,9.51e-06
17,chain 1 R7L,5.29e-05
18,chain 1 R7E,0.000105
19,chain 1 K14V,0.00288
20,chain 1 K14F,0.000323
21,chain 1 K14R,0.000435
22,chain 1 K14T,0.00281
23,chain 1 K14G,0.000578
24,chain 1 K14L,0.00279

row,Variant,screen value
1,chain 1 K14P,0.000397
2,chain 1 K14E,0.000624
3,chain 1 K14Y,0.00118
4,chain 1 K14S,0.00269
5,chain 1 K14Q,0.000236
6,chain 1 K14I,0.00345
7,chain 1 K14H,0.00346
8,chain 1 K14M,0.00386
9,chain 1 K14A,0.000632
10,chain 1 K14W,0.000402
11,chain 1 K14N,0.0005
12,chain 1 P10F,0
13,chain 1 P10V,6.49e-05
14,chain 1 P10K,2.27e-05
15,chain 1 P10M,0
16,chain 1 I4H,0.000121
17,chain 1 I4R,1.67e-05
18,chain 1 I4S,0.000505
19,chain 1 I4W,0.00024
20,chain 1 I4P,0.00083
21,chain 1 I4A,0.000219
22,chain 1 I4M,2.1e-05
23,chain 1 I4Q,0.000112
24,chain 1 I4L,6.99e-05

row,Variant,screen value
1,chain 1 I4E,0.000192
2,chain 1 I4T,0.000484
3,chain 1 I4F,4.23e-05
4,chain 1 I4G,0.000179
5,chain 1 I4V,7.44e-05
6,chain 1 I4N,8.36e-05
7,chain 1 I4D,5.2e-05
8,chain 1 Q5Y,0.000112
9,chain 1 Q5T,0.000144
10,chain 1 Q5P,0.000469
11,chain 1 Q5F,3.7e-05
12,chain 1 Q5V,2.74e-05
13,chain 1 Q5N,0.00109
14,chain 1 Q5G,0.000131
15,chain 1 Q5K,0
16,chain 1 Q5M,0.000333
17,chain 1 Q5W,0.000337
18,chain 1 Q5I,0.000326
19,chain 1 Q5A,0.000325
20,chain 1 Q5L,0.000125
21,chain 1 Q5D,0.000181
22,chain 1 Q5H,0.000639
23,chain 1 Q5S,0.00014
